Consider 18 compounds from US11999716B2, “WDR5 inhibitors and modulators” (priority 2018, dated 2024).

Structures are written as SMILES.

The target in this test is WDR5 (Homo sapiens, UniProt P61964). The test is described as follows: biochemical. It is filed as binding. Conditions: WDR5-His tag (Δ23, residues 24-334) 2 nM; 10mer-Thr-FAM probe 150 nM; Tb-anti-HIS 1 nM; 60 min, room temperature; read-out: Ki for Inhibition of WDR5 by TR-FRET assay.

For the compound `COc1ccnc([C@H](C)N2CCc3c(cc(Cn4ccsc4=N)cc3-c3cn(C)nc3C(F)(F)F)C2=O)c1` [Example 105, (S)-7-((2-iminothiazol-3(2H)-yl)methyl)-2-(1-(4-methoxypyridin-2-yl)ethyl)-5-(1-methyl-3-(trifluoromethyl)-1H-pyrazol-4-yl)-3,4-dihydroisoquinolin-1(2H)-one], the Ki is below 0.05 nM.

Consider `Cc1nccn1Cc1cc2c(c(-c3cn(C)nc3C(F)(F)F)c1)CCN(CC1CCCCN1C)C2=O` (stereo not drawn) [Example 171, 7-((2-Methyl-1H-imidazol-1-yl)methyl)-5-(1-methyl-3-(trifluoromethyl)-1H-pyrazol-4-yl)-2-((1-methylpiperidin-2-yl)methyl)-3,4-dihydroisoquinolin-1(2H)-one], for which the Ki was determined as 1.2 nM.

Consider `Cc1nnc(CN2CCc3c(cc(Cn4ccnc4C)cc3-c3cn(C)nc3C(F)(F)F)C2=O)s1` [Example 174, 2-((5-Methyl-1,3,4-thiadiazol-2-yl)methyl)-7-((2-methyl-1H-imidazol-1-yl)methyl)-5-(1-methyl-3-(trifluoromethyl)-1H-pyrazol-4-yl)-3,4-dihydroisoquinolin-1(2H)-one], for which the Ki worked out at 0.075 nM.

Take `CCc1ccnc([C@H](C)N2CCc3c(cc(Cn4ccnc4C)cc3-c3cn(C)nc3C(F)(F)F)C2=O)c1` [Example 175, (S)-2-(1-(4-Ethylpyridin-2-yl)ethyl)-7-((2-methyl-1H-imidazol-1-yl)methyl)-5-(1-methyl-3-(trifluoromethyl)-1H-pyrazol-4-yl)-3,4-dihydroisoquinolin-1(2H)-one]: the Ki was below 0.05 nM.

With `COc1ccnc(CN2CCc3c(cc(Cn4ccnc4C4CC4)cc3-c3cn(C)nc3C)C2=O)c1` [Example 9, 7-((2-Cyclopropyl-1H-imidazol-1-yl)methyl)-5-(1,3-dimethyl-1H-pyrazol-4-yl)-2-((4-methoxypyridin-2-yl)methyl)-3,4-dihydroisoquinolin-1(2H)-one], the Ki stood at 0.19 nM.

For the compound `Cc1cc([C@H](C2CC2)N2CCc3c(cc(Cn4ccn(C)c4=N)cc3-c3cccnc3C(F)(F)F)C2=O)ccc1F` [Example 34, (S)-2-(Cyclopropyl(4-fluoro-3-methylphenyl)methyl)-7-((2-imino-3-methyl-2,3-dihydro-1H-imidazol-1-yl)methyl)-5-(2-(trifluoromethyl)pyridin-3-yl)-3,4-dihydroisoquinolin-1(2H)-one], the inhibitory constant (Ki) was below 0.05 nM.

For the compound `COc1ccnc(CN2CCc3c(cc(Cn4ccoc4=N)cc3-c3cn(C)nc3C)C2=O)c1` [Example 85, 5-(1,3-Dimethyl-1H-pyrazol-4-yl)-7-((2-iminooxazol-3(2H)-yl)methyl)-2-((4-methoxypyridin-2-yl)methyl)-3,4-dihydroisoquinolin-1(2H)-one], the inhibitory constant (Ki) is 0.065 nM.

In the case of `CCn1cc(-c2cc(Cn3ccn(C)c3=N)cc3c2CCN(Cc2cn(C)nc2C)C3=O)c(C(F)(F)F)n1` [Example 77, 2-((1,3-Dimethyl-1H-pyrazol-4-yl)methyl)-5-(1-ethyl-3-(trifluoromethyl)-1H-pyrazol-4-yl)-7-((2-imino-3-methyl-2,3-dihydro-1H-imidazol-1-yl)methyl)-3,4-dihydroisoquinolin-1(2H)-one], the Ki was below 0.05 nM.

As to `Cc1ccnc([C@@H](C2CC2)N2CCc3c(cc(Cn4ccn(C)c4=N)cc3-c3ccc(F)cc3C)C2=O)c1` [Example 33, (R)-2-(Cyclopropyl(4-methylpyridin-2-yl)methyl)-5-(4-fluoro-2-methylphenyl)-7-((2-imino-3-methyl-2,3-dihydro-1H-imidazol-1-yl)methyl)-3,4-dihydroisoquinolin-1(2H)-one], the Ki is 0.065 nM.

Regarding `COc1ccnc(CN2CCc3c(cc(Cn4ccn(C(F)F)c4=N)cc3-c3cn(C)nc3C(F)(F)F)C2=O)c1` [Example 61, 7-((3-(Difluoromethyl)-2-imino-2,3-dihydro-1H-imidazol-1-yl)methyl)-2-((4-methoxypyridin-2-yl)methyl)-5-(1-methyl-3-(trifluoromethyl)-1H-pyrazol-4-yl)-3,4-dihydroisoquinolin-1(2H)-one], the Ki was below 0.05 nM.

Regarding `CCn1cc(-c2cc(Cn3ccnc3C(C)C)cc3c2CCN([C@@H](C)c2cc(OC)ccn2)C3=O)c(C(F)(F)F)n1` [Example 162, (S)-5-(1-Ethyl-3-(trifluoromethyl)-1H-pyrazol-4-yl)-7-((2-isopropyl-1H-imidazol-1-yl)methyl)-2-(1-(4-methoxypyridin-2-yl)ethyl)-3,4-dihydroisoquinolin-1(2H)-one], the Ki was 2.5 nM.

`COc1ccnc(CN2CCc3c(cc(Cn4cc5n(c4=N)CCC5)cc3-c3cn(C)nc3C(F)(F)F)C2=O)c1` [Example 62, 7-((3-Imino-6,7-dihydro-3H-pyrrolo[1,2-c]imidazol-2(51/)-yl)methyl)-2-((4-methoxypyridin-2-yl)methyl)-5-(1-methyl-3-(trifluoromethyl)-1H-pyrazol-4-yl)-3,4-dihydroisoquinolin-1(2H)-one]: the inhibition constant Ki was below 0.05 nM.

Take `Cc1nccn1Cc1cc2c(c(-c3cn(C)nc3C(F)(F)F)c1)CCN(Cc1cc(Br)ccn1)C2=O` [Example 205, 2-((4-Bromopyridin-2-yl)methyl)-7-((2-methyl-1H-imidazol-1-yl)methyl)-5-(1-methyl-3-(trifluoromethyl)-1H-pyrazol-4-yl)-3,4-dihydroisoquinolin-1(2H)-one]: the Ki is below 0.05 nM.

As for `COc1cc(CN2CCc3c(OC4CCC4)cc(Cn4ccoc4=N)cc3C2=O)cc(OC)c1` [Example 92, 5-Cyclobutoxy-2-(3,5-dimethoxybenzyl)-7-((2-iminooxazol-3(2H)-yl)methyl)-3,4-dihydroisoquinolin-1(2H)-one], the Ki was determined as 1.1 nM.

In the case of `COc1cc(CN2CCc3c(OCC4CC4)cc(Cn4ccn(C)c4=N)cc3C2=O)cc(OC)c1` [Example 75, 5-(Cyclopropylmethoxy)-2-(3,5-dimethoxybenzyl)-7-((2-imino-3-methyl-2,3-dihydro-1H-imidazol-1-yl)methyl)-3,4-dihydroisoquinolin-1(2H)-one], the Ki came to 0.63 nM.

For `COc1ccnc([C@H](C)N2CCc3c(cc(Cn4ccn(C)c4=N)cc3-c3cn(C)nc3C(F)(F)F)C2=O)c1` [Example 71, (S)-7-((2-Imino-3-methyl-2,3-dihydro-1H-imidazol-1-yl)methyl)-2-(1-(4-methoxypyridin-2-yl)ethyl)-5-(1-methyl-3-(trifluoromethyl)-1H-pyrazol-4-yl)-3,4-dihydroisoquinolin-1(2H)-one], the Ki is below 0.05 nM.

On to `COc1ccnc(CN2CCc3c(cc(Cn4ccn(C)c4=N)cc3-c3cn(C)nc3C(F)(F)F)C2=O)c1` [Example 41, 7-((2-Imino-3-methyl-2,3-dihydro-1H-imidazol-1-yl)methyl)-2-((4-methoxypyridin-2-yl)methyl)-5-(1-methyl-3-(trifluoromethyl)-1H-pyrazol-4-yl)-3,4-dihydroisoquinolin-1(2H)-one], for which the Ki is below 0.05 nM.

For the compound `CCc1nccn1Cc1cc2c(c(-c3cc(C)nc(C)c3)c1)CCN(Cc1cc(OC)cc(OC)c1)C2=O` [Example 155, 2-(3,5-Dimethoxybenzyl)-5-(2,6-dimethylpyridin-4-yl)-7-((2-ethyl-1H-imidazol-1-yl)methyl)-3,4-dihydroisoquinolin-1(2H)-one], the Ki was 0.13 nM.

By Ki is commonly meant the dissociation constant of the complex between target and ligand, obtained from inhibition or displacement.
